# Test results as given in the supplement of paper PMC9446081.
# The campaign covered roughly 39,000 compounds. About 220 (0.56%) showed activity. Some of the results follow.
# Test system: Escherichia coli K-12 BW25113
# Experiment: relative growth (OD600 normalised to plate interquartile mean) (fraction); higher = less growth inhibition, active = 0.2 or less
# Conditions: 50 µM; LB; incubation time: overnight (16-24 h)
# 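Further: static incubation at 37 °C against the wild-type strain, values averaged over two biological replicates.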
row,Compound,relative growth
1,Cc1ccc(S(=O)(=O)Nc2ccc3c(c2)CC(=O)N([C@@H](C)CO)C[C@H](C)[C@H](CN(C)C(=O)NC(C)C)O3)cc1,inactive: 0.976
2,C[C@H](CO)N1C[C@H](C)[C@H](CN(C)C(=O)Nc2ccc3c(c2)OCO3)Oc2ncc(-c3cccnc3)cc2C1=O,inactive: 0.95
3,C[C@@H]1CCCCO[C@H](CN(C)C(=O)Nc2ccc3c(c2)OCO3)[C@@H](C)CN([C@H](C)CO)C(=O)c2cc(NS(=O)(=O)c3cccs3)ccc2O1,inactive: 0.997
4,C/C(=C/C(=O)N1CCN(C)CC1)C(=O)O,inactive: 1.01
5,COc1ccc(CN(C)C[C@H]2Oc3ccc(NC(=O)Nc4cccc5ccccc45)cc3C(=O)N([C@@H](C)CO)C[C@H]2C)cc1,inactive: 1.01
6,COc1ccc(NC(=O)Nc2ccc3c(c2)C(=O)N([C@H](C)CO)C[C@H](C)[C@@H](CN(C)C(=O)C2CCCCC2)OCCCC[C@@H](C)O3)cc1,inactive: 1.01
7,C[C@@H]1CCCCO[C@H](CN(C)C)[C@@H](C)CN([C@@H](C)CO)C(=O)c2cc(NC(=O)Nc3cccc4ccccc34)ccc2O1,inactive: 1.01
8,CCCN(C)C[C@H]1OCCCC[C@@H](C)Oc2ccc(NC(=O)CCC(F)(F)F)cc2C(=O)N([C@@H](C)CO)C[C@H]1C,inactive: 1.02
9,C[C@@H]1CN([C@@H](C)CO)C(=O)c2cc(NC(=O)CCCCCC(=O)Nc3ccccc3N)ccc2O[C@@H]1CN(C)C(=O)Nc1ccccc1,inactive: 0.994
10,Cc1noc(C)c1NC(=O)N(C)C[C@@H]1Oc2cc(C#CCN(C)C)ccc2S(=O)(=O)N([C@@H](C)CO)C[C@@H]1C,inactive: 0.942
11,C[C@H](CO)N1C[C@H](C)[C@H](CN(C)C(=O)Cc2ccncc2)Oc2cc(-c3cncnc3)ccc2S1(=O)=O,inactive: 1.03
12,C[C@@H]1CN([C@@H](C)CO)S(=O)(=O)c2ccc(Br)cc2O[C@H]1CN(C)C(=O)c1ccccc1F,inactive: 0.987
13,CN1[C@@H]2Cn3c(ccc(-c4ccccc4)c3=O)[C@H]1[C@@H](C(=O)NCCCN1CCOCC1)[C@@H]2CO,inactive: 1
14,C[C@@H]1CN([C@H](C)CO)S(=O)(=O)c2ccc(C#Cc3cccc(F)c3)cc2O[C@@H]1CN(C)S(=O)(=O)c1cn(C)cn1,inactive: 1.02
15,C[C@@H]1CN([C@@H](C)CO)C(=O)c2cc(NS(C)(=O)=O)ccc2O[C@@H](C)CCCCO[C@@H]1CN(C)S(=O)(=O)c1ccccc1,inactive: 0.98
16,Cc1noc(C)c1NC(=O)N[C@@H]1CC[C@H](CC(=O)NCCCN(C)C)O[C@H]1CO,inactive: 0.984
